# Data taken from article PMC12820563, “FoxP3 forms a head-to-head dimer in vivo and stabilizes its multimerization on adjacent microsatellites”.
# The other results are listed elsewhere or left out.
# Target: T1, MBP-FoxP1dN (Mus musculus, UniProt P58462 326-579)
# T1 sequence: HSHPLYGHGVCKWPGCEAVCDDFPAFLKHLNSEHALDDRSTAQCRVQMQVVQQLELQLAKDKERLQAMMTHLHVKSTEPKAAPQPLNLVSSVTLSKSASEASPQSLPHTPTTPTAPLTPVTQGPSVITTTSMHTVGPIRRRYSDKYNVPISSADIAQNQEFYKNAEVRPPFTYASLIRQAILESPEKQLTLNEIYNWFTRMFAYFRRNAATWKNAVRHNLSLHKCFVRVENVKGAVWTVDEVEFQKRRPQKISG
# Test: PD-seq (MBP pull-down with sequencing); 20 mM Tris-HCl pH 7.5, 100 mM NaCl, 1.5 mM MgCl2, 0.4 uM protein, 0.1 uM dsDNA library, 30 min, room temperature, amylose pull-down; high values mean tight binding
# Conditions: protein: recombinant; tags: His6-MBP; chain copies: 2; dsDNA, one strand shown
# Procedure, shortened: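 Mouse FoxP3 or FoxP1 fragment lacking the N-terminus, His6-MBP-tagged and expressed in E. coli, was incubated at 0.4 µM with 0.1 µM Klenow-filled degenerate double-stranded DNA library for 30 min at room temperature in Tris pH 7.5 buffer with NaCl and MgCl2. Complexes captured on amylose resin were washed three times and their DNA sequenced on Illumina. Binding is reads-per-million enrichment of pull-down over input, replicates pooled.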
row,Sequence,binding signal
1,GATGATTGTTCTCCCAGCTGATGAATTACGTTAATCGAGTAAACAAATTTTCCTAATCTTTCTGTTCAAGCGCCATCTAC,1.2 RPM ratio (pull-down/input)
2,GATGATTGTTCTCCCAGCTGATGAATTTCATCCCTCGAGTAAACAAATTTTCCTAATCTTTCTGTTCAAGCGCCATCTAC,0.818 RPM ratio (pull-down/input)
3,GATGATTGTTCTCCCAGCTGATGAATTACGACCCTCGAGTAAACAAATTTTCCTAATCTTTCTGTTCAAGCGCCATCTAC,0.931 RPM ratio (pull-down/input)
4,GATGATTGTTCTCCCAGCTGATGAATTCGGGGCATCGAGTAAACAAATTTTCCTAATCTTTCTGTTCAAGCGCCATCTAC,0.909 RPM ratio (pull-down/input)
5,GATGATTGTTCTCCCAGCTGATGAATTCGAAAGTTCGAGTAAACAAATTTTCCTAATCTTTCTGTTCAAGCGCCATCTAC,0.839 RPM ratio (pull-down/input)
6,GATGATTGTTCTCCCAGCTGATGAATTTTGGGTTTCGAGTAAACAAATTTTCCTAATCTTTCTGTTCAAGCGCCATCTAC,0.87 RPM ratio (pull-down/input)
7,GATGATTGTTCTCCCAGCTGATGAATTTGAGGTCTCGAGTAAACAAATTTTCCTAATCTTTCTGTTCAAGCGCCATCTAC,0.712 RPM ratio (pull-down/input)
8,GATGATTGTTCTCCCAGCTGATGAATTTTGGTTATCGAGTAAACAAATTTTCCTAATCTTTCTGTTCAAGCGCCATCTAC,1.17 RPM ratio (pull-down/input)
9,GATGATTGTTCTCCCAGCTGATGAATTGAGGGGTTCGAGTAAACAAATTTTCCTAATCTTTCTGTTCAAGCGCCATCTAC,0.794 RPM ratio (pull-down/input)
10,GATGATTGTTCTCCCAGCTGATGAATTGTGTTGATCGAGTAAACAAATTTTCCTAATCTTTCTGTTCAAGCGCCATCTAC,2.46 RPM ratio (pull-down/input)
11,GATGATTGTTCTCCCAGCTGATGAATTCTCCCGTTCGAGTAAACAAATTTTCCTAATCTTTCTGTTCAAGCGCCATCTAC,0.944 RPM ratio (pull-down/input)
12,GATGATTGTTCTCCCAGCTGATGAATTCACCGTCTCGAGTAAACAAATTTTCCTAATCTTTCTGTTCAAGCGCCATCTAC,0.859 RPM ratio (pull-down/input)
13,GATGATTGTTCTCCCAGCTGATGAATTGTTAATCTCGAGTAAACAAATTTTCCTAATCTTTCTGTTCAAGCGCCATCTAC,1.08 RPM ratio (pull-down/input)
14,GATGATTGTTCTCCCAGCTGATGAATTTTAGAAGTCGAGTAAACAAATTTTCCTAATCTTTCTGTTCAAGCGCCATCTAC,0.862 RPM ratio (pull-down/input)
15,GATGATTGTTCTCCCAGCTGATGAATTTCACCTCTCGAGTAAACAAATTTTCCTAATCTTTCTGTTCAAGCGCCATCTAC,0.796 RPM ratio (pull-down/input)
16,GATGATTGTTCTCCCAGCTGATGAATTATCGTGATCGAGTAAACAAATTTTCCTAATCTTTCTGTTCAAGCGCCATCTAC,1.04 RPM ratio (pull-down/input)
17,GATGATTGTTCTCCCAGCTGATGAATTCACCACCTCGAGTAAACAAATTTTCCTAATCTTTCTGTTCAAGCGCCATCTAC,0.866 RPM ratio (pull-down/input)
18,GATGATTGTTCTCCCAGCTGATGAATTAATTGAATCGAGTAAACAAATTTTCCTAATCTTTCTGTTCAAGCGCCATCTAC,0.962 RPM ratio (pull-down/input)
19,GATGATTGTTCTCCCAGCTGATGAATTCGGTCGCTCGAGTAAACAAATTTTCCTAATCTTTCTGTTCAAGCGCCATCTAC,0.816 RPM ratio (pull-down/input)
20,GATGATTGTTCTCCCAGCTGATGAATTCCTGCCTTCGAGTAAACAAATTTTCCTAATCTTTCTGTTCAAGCGCCATCTAC,0.874 RPM ratio (pull-down/input)
21,GATGATTGTTCTCCCAGCTGATGAATTTTGTTTCTCGAGTAAACAAATTTTCCTAATCTTTCTGTTCAAGCGCCATCTAC,1.71 RPM ratio (pull-down/input)

row,Sequence,binding signal
1,GATGATTGTTCTCCCAGCTGATGAATTATATTGCTCGAGTAAACAAATTTTCCTAATCTTTCTGTTCAAGCGCCATCTAC,1.21 RPM ratio (pull-down/input)
2,GATGATTGTTCTCCCAGCTGATGAATTCTCATCGTCGAGTAAACAAATTTTCCTAATCTTTCTGTTCAAGCGCCATCTAC,0.855 RPM ratio (pull-down/input)
3,GATGATTGTTCTCCCAGCTGATGAATTTATGCGCTCGAGTAAACAAATTTTCCTAATCTTTCTGTTCAAGCGCCATCTAC,1.08 RPM ratio (pull-down/input)
4,GATGATTGTTCTCCCAGCTGATGAATTTGTTCTATCGAGTAAACAAATTTTCCTAATCTTTCTGTTCAAGCGCCATCTAC,1.16 RPM ratio (pull-down/input)
5,GATGATTGTTCTCCCAGCTGATGAATTATGCTCTTCGAGTAAACAAATTTTCCTAATCTTTCTGTTCAAGCGCCATCTAC,1.03 RPM ratio (pull-down/input)
6,GATGATTGTTCTCCCAGCTGATGAATTTAACGCATCGAGTAAACAAATTTTCCTAATCTTTCTGTTCAAGCGCCATCTAC,1.16 RPM ratio (pull-down/input)
7,GATGATTGTTCTCCCAGCTGATGAATTGGAAACTTCGAGTAAACAAATTTTCCTAATCTTTCTGTTCAAGCGCCATCTAC,0.827 RPM ratio (pull-down/input)
8,GATGATTGTTCTCCCAGCTGATGAATTATGCGCGTCGAGTAAACAAATTTTCCTAATCTTTCTGTTCAAGCGCCATCTAC,1.08 RPM ratio (pull-down/input)
9,GATGATTGTTCTCCCAGCTGATGAATTCCACATCTCGAGTAAACAAATTTTCCTAATCTTTCTGTTCAAGCGCCATCTAC,0.827 RPM ratio (pull-down/input)
10,GATGATTGTTCTCCCAGCTGATGAATTTTCTGCATCGAGTAAACAAATTTTCCTAATCTTTCTGTTCAAGCGCCATCTAC,1.28 RPM ratio (pull-down/input)
11,GATGATTGTTCTCCCAGCTGATGAATTTCACCGGTCGAGTAAACAAATTTTCCTAATCTTTCTGTTCAAGCGCCATCTAC,0.751 RPM ratio (pull-down/input)
12,GATGATTGTTCTCCCAGCTGATGAATTTAAACACTCGAGTAAACAAATTTTCCTAATCTTTCTGTTCAAGCGCCATCTAC,1.12 RPM ratio (pull-down/input)
13,GATGATTGTTCTCCCAGCTGATGAATTATAAGAGTCGAGTAAACAAATTTTCCTAATCTTTCTGTTCAAGCGCCATCTAC,0.897 RPM ratio (pull-down/input)
14,GATGATTGTTCTCCCAGCTGATGAATTTGGAGTCTCGAGTAAACAAATTTTCCTAATCTTTCTGTTCAAGCGCCATCTAC,0.826 RPM ratio (pull-down/input)
15,GATGATTGTTCTCCCAGCTGATGAATTCCAATCCTCGAGTAAACAAATTTTCCTAATCTTTCTGTTCAAGCGCCATCTAC,0.754 RPM ratio (pull-down/input)
16,GATGATTGTTCTCCCAGCTGATGAATTCCATGTCTCGAGTAAACAAATTTTCCTAATCTTTCTGTTCAAGCGCCATCTAC,0.818 RPM ratio (pull-down/input)
17,GATGATTGTTCTCCCAGCTGATGAATTGATCTGCTCGAGTAAACAAATTTTCCTAATCTTTCTGTTCAAGCGCCATCTAC,0.94 RPM ratio (pull-down/input)
18,GATGATTGTTCTCCCAGCTGATGAATTATTTGTCTCGAGTAAACAAATTTTCCTAATCTTTCTGTTCAAGCGCCATCTAC,1.66 RPM ratio (pull-down/input)
19,GATGATTGTTCTCCCAGCTGATGAATTCCCGAGTTCGAGTAAACAAATTTTCCTAATCTTTCTGTTCAAGCGCCATCTAC,0.811 RPM ratio (pull-down/input)
20,GATGATTGTTCTCCCAGCTGATGAATTAACCTTGTCGAGTAAACAAATTTTCCTAATCTTTCTGTTCAAGCGCCATCTAC,0.862 RPM ratio (pull-down/input)
21,GATGATTGTTCTCCCAGCTGATGAATTTCTTTAGTCGAGTAAACAAATTTTCCTAATCTTTCTGTTCAAGCGCCATCTAC,0.819 RPM ratio (pull-down/input)

row,Sequence,binding signal
1,GATGATTGTTCTCCCAGCTGATGAATTTATGGGCTCGAGTAAACAAATTTTCCTAATCTTTCTGTTCAAGCGCCATCTAC,0.937 RPM ratio (pull-down/input)
2,GATGATTGTTCTCCCAGCTGATGAATTTGCTGTCTCGAGTAAACAAATTTTCCTAATCTTTCTGTTCAAGCGCCATCTAC,1.22 RPM ratio (pull-down/input)
3,GATGATTGTTCTCCCAGCTGATGAATTCCACGTGTCGAGTAAACAAATTTTCCTAATCTTTCTGTTCAAGCGCCATCTAC,0.85 RPM ratio (pull-down/input)
4,GATGATTGTTCTCCCAGCTGATGAATTGCCGTAATCGAGTAAACAAATTTTCCTAATCTTTCTGTTCAAGCGCCATCTAC,1.39 RPM ratio (pull-down/input)
5,GATGATTGTTCTCCCAGCTGATGAATTACTCACGTCGAGTAAACAAATTTTCCTAATCTTTCTGTTCAAGCGCCATCTAC,1.01 RPM ratio (pull-down/input)
6,GATGATTGTTCTCCCAGCTGATGAATTGAAACACTCGAGTAAACAAATTTTCCTAATCTTTCTGTTCAAGCGCCATCTAC,0.982 RPM ratio (pull-down/input)
7,GATGATTGTTCTCCCAGCTGATGAATTATGAGTTTCGAGTAAACAAATTTTCCTAATCTTTCTGTTCAAGCGCCATCTAC,1.04 RPM ratio (pull-down/input)
8,GATGATTGTTCTCCCAGCTGATGAATTGGCGCTGTCGAGTAAACAAATTTTCCTAATCTTTCTGTTCAAGCGCCATCTAC,0.849 RPM ratio (pull-down/input)
9,GATGATTGTTCTCCCAGCTGATGAATTCAATGTATCGAGTAAACAAATTTTCCTAATCTTTCTGTTCAAGCGCCATCTAC,1.19 RPM ratio (pull-down/input)
10,GATGATTGTTCTCCCAGCTGATGAATTTGGGGAATCGAGTAAACAAATTTTCCTAATCTTTCTGTTCAAGCGCCATCTAC,0.916 RPM ratio (pull-down/input)
11,GATGATTGTTCTCCCAGCTGATGAATTTTTGCCGTCGAGTAAACAAATTTTCCTAATCTTTCTGTTCAAGCGCCATCTAC,0.905 RPM ratio (pull-down/input)
12,GATGATTGTTCTCCCAGCTGATGAATTAACTCCGTCGAGTAAACAAATTTTCCTAATCTTTCTGTTCAAGCGCCATCTAC,0.847 RPM ratio (pull-down/input)
13,GATGATTGTTCTCCCAGCTGATGAATTAAAAGAATCGAGTAAACAAATTTTCCTAATCTTTCTGTTCAAGCGCCATCTAC,1 RPM ratio (pull-down/input)
14,GATGATTGTTCTCCCAGCTGATGAATTTACTCACTCGAGTAAACAAATTTTCCTAATCTTTCTGTTCAAGCGCCATCTAC,1.34 RPM ratio (pull-down/input)
15,GATGATTGTTCTCCCAGCTGATGAATTTATCCCATCGAGTAAACAAATTTTCCTAATCTTTCTGTTCAAGCGCCATCTAC,1.08 RPM ratio (pull-down/input)
16,GATGATTGTTCTCCCAGCTGATGAATTATGGAGCTCGAGTAAACAAATTTTCCTAATCTTTCTGTTCAAGCGCCATCTAC,0.861 RPM ratio (pull-down/input)
17,GATGATTGTTCTCCCAGCTGATGAATTAGATGGCTCGAGTAAACAAATTTTCCTAATCTTTCTGTTCAAGCGCCATCTAC,0.872 RPM ratio (pull-down/input)
18,GATGATTGTTCTCCCAGCTGATGAATTCGCTACCTCGAGTAAACAAATTTTCCTAATCTTTCTGTTCAAGCGCCATCTAC,0.85 RPM ratio (pull-down/input)
19,GATGATTGTTCTCCCAGCTGATGAATTCTACAATTCGAGTAAACAAATTTTCCTAATCTTTCTGTTCAAGCGCCATCTAC,1.01 RPM ratio (pull-down/input)
20,GATGATTGTTCTCCCAGCTGATGAATTTGTACGTTCGAGTAAACAAATTTTCCTAATCTTTCTGTTCAAGCGCCATCTAC,1.11 RPM ratio (pull-down/input)
21,GATGATTGTTCTCCCAGCTGATGAATTACTGGCATCGAGTAAACAAATTTTCCTAATCTTTCTGTTCAAGCGCCATCTAC,1.1 RPM ratio (pull-down/input)
